In the supplement of paper PMC3334620:
Over roughly 33,000 sequences, “E-score (-0.5 to 0.5)” has its median near -0.016; the highest 2% begin near 0.31. This is one part of the list.

These sequences were tested against Cst6 (UniProt P40535) (assay: PBM E-score (8-mer binding enrichment) (E-score (-0.5 to 0.5)); higher = stronger / more preferred TF binding; most listed sequences are background and not binding sites). Details: protein concentration: 200 nM; construct: GST-DNA-binding domain.
Description: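 Universal 'all 10-mer' protein binding microarrays (Agilent AMADID 015681) probed with GST-tagged S. cerevisiae TFs (full-length or DBD) made by in vitro transcription/translation (PURExpress), about 100-200 nM. Bound TF was detected with fluorescent anti-GST. Each ungapped 8-mer (which stands for itself and its reverse complement) is scored by the PBM enrichment score (E-score), a modified Wilcoxon-Mann-Whitney statistic from -0.5 to +0.5, computed with the Universal PBM Analysis Suite. Scale: above 0.35 generally sequence-specific binding.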

Sequence	PBM E-score
AAACAACC	0.0437
GTTAGAAA	0.0476
CCGCCAAC	-0.256
GTGAGAAA	0.133
CCACGGGG	-0.283
AGAGAGGA	-0.32
ATTTCTGC	0.22
CTTAAGCA	-0.227
GCCGTACA	0.237
CCCGCATA	0.162
ACGCCTAG	-0.0363
AAACGGTT	-0.0412
CGGGTCAC	-0.131
CGTATCAG	0.0591
AGAATCGA	-0.0254
CACGAGAC	-0.0226
CCGAACTA	0.00284
ATTCAGAG	0.156
GTCGGTCA	-0.202
AGACTGAA	0.0537
ACCTCCAT	-0.185
CCCGTTCG	-0.0146
AACTTGGT	0.0656
AAAGTCCG	-0.225
TAGATTCA	-0.123

Sequence	PBM E-score
CCCGGACA	-0.124
ATCCAGCC	-0.321
CTTATGTA	0.186
TAACGTAA	0.452
ACACGCGA	0.0369
CGGACAGA	0.0405
GTGCGTCA	0.432
CAACTAGC	-0.0318
CTTTTAAC	0.0717
GTGCCGTA	0.389
GGTACGCA	-0.0788
AGCGTCTG	-0.194
ACCCTTAG	-0.112
TATTCAGA	0.237
ATCGTTCC	-0.0931
AAACGTAA	0.365
ATATCACA	0.169
AGATGGTA	-0.0215
CACGGGTA	0.00477
CAAGGGAC	-0.24
CTGCTAAA	-0.0752
GCGGGACA	-0.106
AGTTACAT	0.0765
CGTGGCGC	0.096
AAAGTCAC	0.098

Sequence	PBM E-score
CCACATAG	-0.244
TCACTACA	0.24
CCCCCTAA	-0.28
AAAAAGCA	0.124
GAGTTCAC	-0.0863
TACCAATA	-0.0757
AAAGGATG	-0.0221
ACCGTGCT	-0.149
GGACCGCC	-0.288
CGCTCGAC	-0.204
TCGGATCA	0.13
CTCCTGAC	-0.0342
CAGGTATG	0.121
AGTATTGG	-0.078
CAGTAAGG	0.0136
CTTAGCGC	0.11
AAACGAAT	0.15
AGAACGAC	-0.0889
AGTCATAG	0.0637
TAAGAGAA	0.246
TGAACACA	0.06
GATGGCTA	-0.0452
CGAACAAC	0.193
ATAATACA	0.284
CGTCAGCC	0.267

Sequence	PBM E-score
GATGAACC	-0.123
ATAGTCCG	-0.0347
GATGGGCC	-0.218
CAGCCAAG	-0.24
AACTGGGG	-0.264
ATGTAACG	0.235
AAAGACAC	0.171
ATACTACC	-0.0771
CCCTTTCG	-0.215
AACTTCAC	0.0265
AGGCTAGC	-0.263
AGTTCTAG	-0.241
GTTAGAGA	-0.116
AATTCCCA	0.0197
CTCTACTC	-0.115
AAACTAGA	-0.0317
AGAACTTA	0.0848
ACCTAGGG	-0.159
CTTTCGAA	-0.0432
ATAGGTAC	-0.0385
AGACCATG	-0.277
AGACGGAA	-0.0491
ACGAATTA	0.152
TCCCTAAA	0.0348
GAGTATAA	0.205

Sequence	PBM E-score
AAAGTGAA	0.0996
ATTCGGGC	-0.26
CTACTCAC	0.212
ACTCCACA	-0.0523
AACGGTTG	0.0747
CTAGATTC	-0.0987
CTAACTCA	-0.0172
ATCGAACA	-0.016
CGGATGGC	0.0649
ACATTTTA	0.293
GCGTTCGA	0.115
GCGCGGAC	0.09
GTAATTTA	0.333
CCCTGGTC	-0.407
CCCAATGC	-0.272
ACCTGAAT	0.207
ACCAAAGG	-0.0742
CGTTTTAA	0.0215
ACAGCAGT	-0.0163
AAACTCAA	0.137
CGAAGCGA	-0.125
ATGTTTCC	-0.055
CGTGGGTC	-0.208
AGAGGGAC	-0.256
GCCAGAGC	-0.317

Sequence	PBM E-score
AGCCCAAA	0.165
GGCGCAAA	0.234
CCCGCCAA	-0.22
CGGGCGGC	-0.0888
CAATCTCC	-0.0706
AACCCGAC	0.017
AAGTGACT	0.024
CCTGGTGA	0.076
CGGTTCGA	0.129
AGAGCCGG	-0.303
TAAGGAAA	0.104
ATTGTTAC	0.348
CAGTAGAG	-0.0984
CTGGCAAG	-0.208
AGCTTATG	0.116
ATTATCTC	0.182
AAAAGACG	0.244
ACAAGTTA	0.132
ACGTCTGC	0.00409
GAGTCGGA	-0.107
GGTGCAAC	-0.303
AGGACGCG	-0.192
CACGACCG	-0.261
AGCTCGCG	-0.0577
ACGCCGAG	-0.0115

Sequence	PBM E-score
AGTCTATG	-0.0165
ATCAAGCA	0.0121
TATGACGA	0.424
CTGCGGTC	-0.103
CCAGTATA	-0.0987
CCTTAAAA	0.0606
ATCCATAG	-0.307
GAAAGCCC	-0.0559
ATGAAGAA	0.194
GCTCATAC	0.0749
ATACTGGC	-0.14
GAATTCTC	-0.0278
AGAGCCCA	-0.263
GATCCACC	-0.214
AACGTGGT	-0.0291
GGCTGGTA	-0.241
CCATCGGG	-0.0981
AGGTGCAG	-0.202
AGTTGTGC	-0.128
CCGATTCC	-0.0983
CTCATTAA	0.0741
TCATTGGA	0.172
CCCTATGA	0.019
CCATTGCG	0.0501
ATAAGCAA	0.0764

Sequence	PBM E-score
TGAGTACA	0.121
AAGGCACT	-0.0255
TGAGACAA	-0.0491
ATGCGGTG	-0.1
GAACCATA	-0.0707
CCTTGAAA	-0.0379
ACACCTCG	-0.0507
GAGGACGA	-0.081
ATTGCACG	0.0893
CTCCCTGC	-0.218
CCGGTAGC	-0.315
CTCAGTTA	0.0388
CGAAGAAC	0.175
AATTAGTA	0.262
AGTCTCTA	-0.101
GTGCGAGA	-0.0281
CGGTCGAG	-0.15
CTCTCTCC	-0.253
TGATGAAA	0.289
GCAGGAAA	-0.094
ACGTGACA	0.248
ACTGGACA	-0.235
ACTACTCT	0.0211
GACCGAGC	-0.233
ACACCGAA	0.124

Sequence	PBM E-score
AGCGTCTA	-0.207
GTCCGTCA	0.227
AGAAACCT	-0.0469
CAGCGTTC	-0.0772
AATGTATA	0.0762
GCATGGAA	-0.0117
GCTTTATA	0.0192
GCAATAAC	0.00721
GACCGACA	-0.127
ATAGTATA	0.0866
AATAGGAC	-0.0671
AATCGTAC	0.168
CAGTCAGC	-0.0415
CTTCAAAA	0.119
AAAATGGA	0.194
ACTCAATA	0.161
GAATCGAA	0.162
CATGTACG	0.0944
CCGTGCAA	0.137
AGAGTAAG	0.0845
GGATGACC	0.00132
AACACTAT	0.272
AGTGTCAC	0.122
AGGGGTCG	-0.18
CTGCTGAA	-0.0585

Sequence	PBM E-score
CTGTCGTC	0.187
GACCAGCC	-0.16
AGCAGCAC	-0.218
TACAACTA	0.0529
ATGAAACA	0.087
AGAGTGTC	0.203
ATATGCAT	-0.0114
CAGGTCCC	-0.22
AGCACATG	-0.0275
GTATAGTA	0.026
CTCAAAGA	0.037
ACAGAAAG	0.178
AACAGTGC	-0.096
GAGACAAA	-0.154
CTTAATAA	0.155
CACGAGTG	-0.0475
GAAATAAC	0.148
GGCGGTGA	0.106
ACCTTTAC	0.0303
CGCGCCCA	-0.00511
TAACTTAA	0.213
TATCAACA	0.179
ACGGCTAA	0.245
GCAGTCGA	-0.163
AGCGCTTG	-0.105

Sequence	PBM E-score
GTGGTAAC	0.0774
CGTCAAAA	0.248
ATATGGAA	0.0108
CATAGTCG	0.0293
CTGGTAGC	-0.0346
CGTATTGA	0.141
AAGAATGC	0.0306
ACCCTCCG	-0.38
ACCGGACG	0.0583
AACAACAG	0.0569
CAAGGACA	-0.0473
GGGCACTA	-0.178
ACTATAAA	0.162
ATATCTTG	0.114
AATCGACG	0.213
AATCTCGT	0.084
CCTCACAA	0.0405
TAAAAATA	0.295
ATGAAGTA	0.162
AGTTCAGC	-0.244
CGATTGGA	-0.125
GTCGTCAA	0.147
GAATATAC	0.0265
ACATATAA	0.274
GTTAGCCA	-0.0273

Sequence	PBM E-score
AACTACGT	0.208
ATTACAGG	0.0946
ATGACAGA	0.243
ATCTAAGA	0.0804
ACGTAACA	0.386
GGACCGAA	-0.0143
AAGGGAAC	-0.304
ACGGCCGT	0.162
CTTGCGGA	-0.139
ATGTGTGC	-0.0723
CATAACGA	0.0358
TAGTGCAA	0.0452
CGCAATAA	0.273
CAAGGAGA	-0.197
AAAACGAT	0.127
CCGAACCG	-0.26
AGCGACAT	-0.0097
ATTATACA	0.19
ACGCTCGG	0.0469
AACGCCCT	-0.152
CGGAGGAG	-0.36
CAACAGCG	-0.0885
CAAATCGC	-0.198
GAGGGACC	-0.299
CTTAAGTC	-0.134

Sequence	PBM E-score
GGGGCCAC	-0.31
GCCGGCAC	0.00694
GGATGCAC	-0.202
AGTTGGTC	-0.0585
ATTCGAAA	0.112
CACGAAAC	0.0111
GGCAAAAC	0.132
CCGTGCCA	0.054
TAGCAGCA	-0.165
CCGACGCG	-0.128
ACATGCTC	-0.062
TAATGGGA	-0.0514
ATATAAGC	0.24
CCTCCAAC	-0.235
ACGATATA	0.196
CACAGAAG	0.0182
TCATCCGA	0.242
GGAAAGAC	-0.12
AGTCCAAG	-0.217
TCTATTAA	0.212
ATAAAAGG	0.0584
GAAATTTA	0.184
GCGACCTA	-0.133
AGGACAAC	0.0452
CCTAAGCG	-0.0966

Sequence	PBM E-score
GCTGGTGA	0.227
GCAATACC	-0.0122
CGACGACA	-0.054
AGGAGTCA	-0.118
ACCACGGC	0.11
CGTTCGAG	0.0678
AATGTCGA	0.139
GGAAGAAC	0.0432
CAACAGTG	0.0248
ACACCCCA	-0.113
ACTATGAG	0.0505
CGATTGAG	-0.0697
GAATTATA	0.0923
CTACTACA	0.0792
ACGACTAC	-0.155
GCTGTGAC	0.281
TCTGTTCA	-0.00976
CTATAGGA	-0.0303
ATCCTCCA	-0.135
